Results: the supplement of paper PMC12217912
The list shows a part of the results. The full chains were built here from the parent and the listed change. Inactive controls read about 0.05.

B1: TEV protease; numbered along this chain (parent)
chain: MGESLFKGPRDYNPISSSICHLTNESDGHTTSLYGIGFGPFIITNKHLFRRNNGTLVVQSLHGVFKVKDTTTLQQHLVDGRDMIIIRMPKDFPPFPQKLKFREPQREERICLVTTNFQTKSMSSMVSDTSCTFPSGDGIFWKHWIQTKDGQCGSPLVSTRDGFIVGIHSASNFTNTNNYFTSVPKNFMELLTNQEAQQWVSGWRLNADSVLWGGHKVFMVKPEEPFQPVKEATQL

Variants of: B1
Assay: raw area under fraction-flipped curve 0-4 h after induction (AUC4h, not background-subtracted), DNA-recorder readout of cleavage of the substrate (dimensionless); higher = more cleavage of the substrate by the protease variant
Details: temperature: 34 °C; time window: 0-4 h after rhamnose induction
Method: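 In vivo DNA recorder in E. coli TOP10(DE3) ΔrhaA at 34 °C. Each TEVp single-site mutant (parent TEVp 0) is paired with a single-site variant of the 7-mer TEVs (canonical ENLYFQ|S). The substrate sits between flexible linkers in a Bxb1-sfGFP-TEVs-SsrA fusion, so cleavage stabilises Bxb1 and speeds flipping of a recombination array, read by NGS. The value is the raw area under the fraction-flipped curve over 0-4 h after rhamnose induction (AUC4h), with ≥20 reads per time point. It is not background-subtracted; inactive controls average about 0.047.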
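Also: Bxb1 expression induced with 0.2% (w/v) L-rhamnose at OD600 near 0.5, cultures sampled hourly, flipped fraction per protease–substrate barcode pair counted by paired-end Illumina sequencing.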

Row | Variant | area with substrate ANLYFQS | area with substrate CNLYFQS | area with substrate DNLYFQS | area with substrate FNLYFQS | area with substrate INLYFQS | area with substrate KNLYFQS | area with substrate PNLYFQS | area with substrate TNLYFQS | area with substrate VNLYFQS | area with substrate WNLYFQS | area with substrate YNLYFQS | area with substrate HNLYFQS | area with substrate GNLYFQS | area with substrate MNLYFQS | area with substrate NNLYFQS | area with substrate QNLYFQS | area with substrate RNLYFQS | area with substrate SNLYFQS | area with substrate LNLYFQS
1 | P94I | 0.0812 | 0.0952 | 0.105 | 0.0655 | 0.0785 | 0.0904 | 0.0921 | 0.0589 | 0.0685 | 0.0559 | 0.0555 | – | – | – | – | – | – | – | –
2 | Q234I | 0.0568 | 0.0665 | 0.0909 | – | – | 0.049 | – | 0.0639 | – | 0.0545 | 0.0676 | 0.0698 | – | – | – | – | – | – | –
3 | F173D | 0.0573 | 0.0721 | 0.0649 | 0.0458 | 0.0739 | 0.0682 | 0.0748 | 0.0811 | 0.0593 | 0.0628 | 0.0549 | 0.0555 | 0.0686 | 0.0595 | 0.0583 | 0.0762 | 0.056 | 0.0694 | –
4 | H21N | 0.0622 | 0.0529 | 0.0826 | 0.0552 | – | 0.071 | 0.0756 | 0.0601 | 0.0555 | 0.0629 | 0.0583 | 0.0652 | – | 0.046 | – | – | – | 0.0464 | 0.0535
5 | T176Y | 0.0586 | 0.0624 | 0.051 | – | 0.0676 | 0.0616 | 0.067 | 0.0565 | 0.053 | 0.0518 | – | 0.0501 | 0.0472 | 0.0552 | – | – | – | 0.0548 | 0.0589
6 | K230M | 0.0684 | 0.0632 | 0.0648 | 0.0477 | – | 0.0478 | 0.0682 | 0.0771 | – | 0.0584 | – | 0.0674 | – | 0.0682 | 0.0613 | – | – | 0.0588 | 0.0651
7 | I15S | 0.0538 | 0.0624 | 0.0591 | – | – | 0.0751 | 0.0506 | – | 0.103 | 0.0593 | 0.0518 | 0.0469 | – | – | 0.0604 | – | 0.0472 | – | 0.0542
8 | C111L | 0.076 | 0.0417 | 0.101 | – | 0.067 | – | 0.0622 | 0.0644 | – | 0.055 | – | 0.0615 | – | 0.0573 | – | 0.0871 | – | 0.072 | –
9 | C111T | 0.0546 | 0.0828 | 0.109 | 0.0676 | – | – | 0.0748 | 0.0733 | 0.076 | 0.0602 | – | 0.0586 | 0.0716 | 0.0475 | – | 0.0625 | – | 0.0666 | –
10 | G166V | 0.0466 | 0.0385 | 0.0535 | – | 0.0493 | 0.0494 | 0.0503 | 0.0545 | – | 0.04 | 0.0429 | 0.049 | 0.053 | – | 0.0489 | – | – | – | 0.0645
11 | M125T | 0.123 | 0.0689 | 0.072 | 0.0685 | 0.0679 | 0.0599 | 0.0749 | 0.0703 | 0.0742 | 0.06 | 0.0584 | 0.068 | 0.0733 | – | 0.0705 | – | – | 0.0681 | 0.0675
12 | G54H | 0.0601 | 0.0486 | 0.0469 | 0.0598 | – | – | 0.0537 | 0.0392 | 0.0545 | 0.0584 | 0.045 | 0.0608 | 0.051 | 0.0286 | – | 0.0671 | 0.0837 | 0.0621 | 0.0609
13 | S60L | 0.072 | 0.0601 | 0.121 | 0.0525 | – | 0.028 | – | 0.0751 | 0.0534 | – | 0.0598 | 0.0475 | 0.061 | 0.0546 | 0.05 | – | 0.0628 | 0.0593 | –
14 | D27Q | 0.0718 | 0.0751 | 0.0746 | – | 0.0737 | – | 0.0751 | 0.077 | 0.0538 | 0.0615 | – | 0.0822 | – | 0.0668 | – | – | – | 0.0792 | 0.0509
15 | R10P | 0.0504 | 0.0774 | 0.0689 | 0.0597 | 0.0778 | – | – | 0.0598 | 0.0595 | 0.0787 | 0.0595 | 0.0667 | 0.0635 | 0.0702 | – | 0.0635 | – | – | 0.0772
16 | K142F | 0.073 | 0.0666 | 0.0753 | – | 0.043 | – | 0.0796 | 0.0591 | 0.0605 | 0.0608 | 0.0585 | 0.0591 | 0.0847 | 0.079 | 0.0637 | – | – | – | 0.069
17 | Q198I | 0.0629 | 0.0756 | 0.0788 | 0.0517 | 0.0791 | – | 0.0564 | 0.0434 | – | 0.0596 | 0.0699 | 0.077 | 0.0595 | 0.0713 | 0.059 | – | 0.0536 | 0.0515 | 0.0733
18 | Q197K | 0.0349 | 0.0656 | 0.0699 | – | – | 0.0512 | – | 0.0615 | 0.0678 | 0.0665 | 0.065 | 0.0533 | – | 0.0322 | – | – | – | 0.0655 | 0.0602
19 | P14C | 0.0524 | 0.0812 | 0.066 | 0.0667 | 0.0645 | 0.0648 | 0.0593 | 0.0624 | 0.0502 | 0.0556 | 0.0681 | 0.0607 | 0.0591 | 0.0716 | 0.0562 | – | 0.0715 | 0.0596 | 0.0757
20 | T132V | 0.0561 | 0.0662 | 0.0862 | 0.0838 | 0.0615 | 0.0565 | 0.0747 | 0.0661 | – | 0.057 | 0.0678 | 0.0432 | 0.0745 | 0.0596 | 0.068 | – | – | 0.0752 | –
21 | E223T | 0.0581 | 0.0735 | 0.08 | – | 0.069 | 0.061 | 0.0766 | 0.0394 | 0.0704 | 0.0666 | 0.051 | 0.0697 | 0.046 | 0.0641 | 0.0595 | 0.0688 | – | 0.0718 | 0.0575
22 | V57W | 0.0684 | 0.075 | 0.0883 | – | 0.072 | – | 0.0764 | 0.0507 | 0.0735 | 0.0575 | – | 0.0627 | – | 0.0675 | – | – | – | 0.0576 | 0.0555
23 | E231T | 0.0796 | 0.0713 | 0.0814 | – | – | 0.0693 | 0.0667 | 0.07 | 0.0734 | 0.0475 | – | 0.0682 | 0.0618 | – | 0.0708 | – | – | – | 0.0749
24 | T181M | 0.057 | 0.0967 | 0.0565 | – | 0.0557 | 0.0567 | 0.086 | 0.0609 | – | 0.0589 | 0.0606 | 0.0531 | 0.0622 | – | – | 0.0516 | 0.0607 | 0.0815 | 0.0564
25 | H168W | 0.061 | 0.0576 | 0.0608 | 0.0611 | – | 0.0554 | 0.0606 | 0.0588 | 0.074 | 0.0597 | 0.046 | 0.0572 | 0.0738 | 0.0586 | 0.0664 | 0.0532 | 0.0415 | – | 0.0841
